Structures are written as SMILES. Among all 310,000 compounds or so, about 2,200 (0.71%) showed an effect of 50% or more. Effects have a minus sign here. The list shows a part of the results.

For the test, the target named is human ether-à-go-go-related gene (hERG) potassium channel (human, UniProt Q12809). The test is described as follows: primary screen, population patch clamp on CHO cells stably expressing hERG.
Sequence of human ether-à-go-go-related gene (hERG) potassium channel (Q12809 whole entry, looked up): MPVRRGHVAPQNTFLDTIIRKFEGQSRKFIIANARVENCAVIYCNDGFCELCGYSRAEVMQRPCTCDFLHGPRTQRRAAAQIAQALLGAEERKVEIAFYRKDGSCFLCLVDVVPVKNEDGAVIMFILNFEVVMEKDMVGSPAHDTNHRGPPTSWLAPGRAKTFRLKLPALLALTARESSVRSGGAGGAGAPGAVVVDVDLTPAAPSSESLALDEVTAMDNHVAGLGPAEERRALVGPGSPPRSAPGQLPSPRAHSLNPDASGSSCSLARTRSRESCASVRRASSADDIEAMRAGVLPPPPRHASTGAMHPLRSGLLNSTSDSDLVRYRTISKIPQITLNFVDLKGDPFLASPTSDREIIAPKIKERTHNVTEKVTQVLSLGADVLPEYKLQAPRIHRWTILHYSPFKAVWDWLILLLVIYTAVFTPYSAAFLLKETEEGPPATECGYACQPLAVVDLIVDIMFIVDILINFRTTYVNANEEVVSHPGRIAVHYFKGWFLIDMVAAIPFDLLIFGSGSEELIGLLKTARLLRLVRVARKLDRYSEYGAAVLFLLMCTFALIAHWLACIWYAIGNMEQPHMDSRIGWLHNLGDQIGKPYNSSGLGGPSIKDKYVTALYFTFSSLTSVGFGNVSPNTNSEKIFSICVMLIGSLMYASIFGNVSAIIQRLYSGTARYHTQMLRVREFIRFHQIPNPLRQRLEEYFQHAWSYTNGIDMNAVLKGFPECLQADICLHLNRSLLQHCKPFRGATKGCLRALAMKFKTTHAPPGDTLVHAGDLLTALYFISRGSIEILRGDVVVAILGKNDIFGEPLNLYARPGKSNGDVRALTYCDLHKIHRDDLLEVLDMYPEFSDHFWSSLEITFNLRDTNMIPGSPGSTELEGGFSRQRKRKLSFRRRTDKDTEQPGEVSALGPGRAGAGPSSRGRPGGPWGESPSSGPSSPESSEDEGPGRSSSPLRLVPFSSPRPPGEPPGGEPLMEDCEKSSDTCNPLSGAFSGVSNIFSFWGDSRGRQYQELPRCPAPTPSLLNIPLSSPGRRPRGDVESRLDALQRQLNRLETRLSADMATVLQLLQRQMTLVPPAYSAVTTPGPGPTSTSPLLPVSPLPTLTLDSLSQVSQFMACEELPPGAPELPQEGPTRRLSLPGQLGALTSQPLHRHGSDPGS
As to `CCCCNc1ccncc1S(=O)(=O)NC(=O)NC(C)C.O=[N+]([O-])O`, the “hERG current change (%, negative = inhibition) at 1uM” value came to 7.78%. The same measure for `Cl.Clc1ccc(COc2ccccc2CNCc2cccnc2)cc1`: 2.84%. Regarding `NC(=O)CSc1nnc(Cn2c(=O)sc3ccccc32)n1CCc1ccccc1`, the “hERG current change (%, negative = inhibition) at 1uM” value is reported as 2.54%. The same measure for `O=C(O)CN1C(=O)C2(OCCO2)c2cc(Br)ccc21`: 1.32%; for `Cc1ccc(N(C(C)C(=O)N2CCCC2)S(C)(=O)=O)cc1` (stereo not shown): 15.8%; for `Cc1cc2nccc(-c3ccco3)n2n1`: 11.9%. As to `Cc1nc2sc(C(c3ccc(Cl)cc3)N3CCN(c4ccccc4F)CC3)c(O)n2n1` (stereo not shown), the “hERG current change (%, negative = inhibition) at 1uM” value is on record as 0.119%.

Take `CC(C)Cn1c(N)c(C(=O)COC(=O)c2ccc3c(c2)OCCO3)c(=O)n(C)c1=O`: the “hERG current change (%, negative = inhibition) at 1uM” value was -11.1%.

Regarding `C[C@@H](C(=O)Nc1nc(-c2ccccn2)cs1)N1C(=O)C2CCCCC2C1=O` (stereo partly shown), the “hERG current change (%, negative = inhibition) at 1uM” value is given as 8.07%. The figure for `CCC(CC)c1nnc(NC(=O)C23CC4CC(CC(NC(C)=O)(C4)C2)C3)s1` is 0.699%; for `Cc1cccc(C)c1NC(=O)C(NS(=O)(=O)c1cccs1)c1ccccc1` (stereo not shown) it is 10.2%; for `Cc1ccc(NC(=O)C2CCC(=O)N2C(=O)OCc2ccccc2)cc1` (stereo not shown) it is 3.85%.

For the compound `O=C(CSc1n[nH]c(=O)n1Cc1ccco1)Nc1ccccc1`, the “hERG current change (%, negative = inhibition) at 1uM” value is on record as 11.4%.

Regarding `CC1Cc2cc(/C(O)=C3/C(=O)C(=O)N(CCN4CCOCC4)C3c3cccc(Cl)c3)ccc2O1` (stereo not shown), the “hERG current change (%, negative = inhibition) at 1uM” value is given as 5.27%. `NS(=O)(=O)c1ccc(CNC(=O)Cc2ccsc2)cc1`: the “hERG current change (%, negative = inhibition) at 1uM” value was 18.3%. The same measure for `O=C(CCCc1nc2ccccc2s1)NCc1ccccc1F`: -2.07%; for `CC(=O)Nc1sc(C)c(C)c1C(=O)OCC(=O)NCc1ccc(F)cc1`: 12.8%; for `COc1ccc(CCNC(=O)C2CCN(S(=O)(=O)c3ccc4c(c3)oc(=O)n4C)CC2)cc1OC`: 12.4%. The same measure for `CCN1c2ccccc2-c2nc3ccccc3n2C1c1ccncc1` (stereo not shown): 3.03%. Regarding `CSc1ccccc1C(=O)OCC(=O)N1CCN(C(C)=O)CC1`, the “hERG current change (%, negative = inhibition) at 1uM” value was determined as 15.2%. The same measure for `Cc1ccc(NS(=O)(=O)c2c(C(=O)N3CCOCC3)c(C)n(C)c2C)cc1C`: 13.9%; for `O=C(NC1CCC(O)CC1)c1ccc(-c2ccc(Cl)cc2)o1` (stereo not shown): -0.762%; for `O=C([O-])CCCNC(=O)C(c1ccccc1)c1ccccc1.[Li+]`: 1.13%. The same measure for `CN(C(=S)NC1=CCS(=O)(=O)C1)C1CCCCC1`: 10.7%. The same measure for `N#Cc1ccc(CN2CCN(CC(=O)NCCc3ccc(Cl)cc3Cl)CC2)cc1`: -47.3%; for `O=c1[nH]c2ccc(S(=O)(=O)NCc3ccccn3)cc2s1`: 16.9%; for `COc1ccccc1-c1cc2nc(C)c(CCC(=O)NCc3ccc(F)cc3)c(C)n2n1`: -1.72%.

Consider `O=C(COc1ccc(Cl)cc1)N(Cc1cccs1)C1CCS(=O)(=O)C1` (stereo not shown), for which the “hERG current change (%, negative = inhibition) at 1uM” value was -3.54%. The same measure for `Cc1c(OC(C)C(=O)O)ccc2c(-c3ccccc3)cc(=O)oc12` (stereo not shown): 11.5%; for `COc1ccc2c(-c3cccnc3)cc(=O)[nH]c2c1`: 0.833%; for `COC(=O)C1=C(c2ccc(OC(F)(F)F)cc2)C[C@@H]2CC[C@H]1N2C(=O)NCCc1ccccc1`: 2.34%.

For `COc1cccc(C(=O)NCC(=O)N2CCC3(CC2)NCCc2[nH]cnc23)c1OC`, the “hERG current change (%, negative = inhibition) at 1uM” value came to 10.4%. Regarding `CN(c1ccccc1C(=O)Nc1cccc(C(F)(F)F)c1)S(C)(=O)=O`, the “hERG current change (%, negative = inhibition) at 1uM” value amounted to 8.78%.

Take `Cc1ccc(C(=O)COC(=O)CCCC(=O)Nc2cc(C(F)(F)F)ccc2Cl)cc1C`: the “hERG current change (%, negative = inhibition) at 1uM” value is listed as 12.5%.

Regarding `CC1CCCCN1CCCNC(=O)c1ccc2nc(N3CCCCC3)sc2c1` (stereo not shown), the “hERG current change (%, negative = inhibition) at 1uM” value is recorded as -0.784%. The same measure for `Cc1nnc(NC(=O)C(C)Sc2nnc(-c3ccco3)n2C(C)C)s1` (stereo not shown): 16.3%; for `COc1ccccc1NC(=O)Nc1nc(CC(=O)Nc2cc(F)ccc2F)cs1`: 7.89%; for `COc1ccc(Cn2c(=O)[nH]c3cc(OC)c(OC)cc3c2=O)cc1`: 11.7%. The same measure for `CCOC(=O)c1ccccc1NC(=O)Cn1c(=O)n(Cc2ccccc2)c(=O)c2c(C)c(C)sc21`: 7.49%; for `O=C(CSc1ccc2nnc(-c3cccs3)n2n1)N1CCCC1`: -5.17%; for `NC(=O)c1sc2nnc(-c3ccccc3)c(-c3ccccc3)c2c1N`: 10.3%.

As to `CCCCc1ccc(NC(=O)C(=O)NCCN2CCN(C(=O)c3ccc([N+](=O)[O-])cc3)CC2)cc1`, the “hERG current change (%, negative = inhibition) at 1uM” value was determined as 0.387%.

Take `CCCn1nnnc1NCc1ccc(F)cc1`: the “hERG current change (%, negative = inhibition) at 1uM” value is recorded as 7.19%. Turning to `CNC(=O)C1CC(=O)N(Cc2ccc3c(c2)OCO3)C(=Nc2ccc(OC)cc2)S1` (stereo not shown), the “hERG current change (%, negative = inhibition) at 1uM” value came to 10.1%. The same measure for `CCCNC(=O)N1[C@H]2CC[C@@H]1C(C(=O)OC)=C(c1ccc(OC)c(OC)c1)C2`: 6.5%; for `Cc1ccc(C(=O)CCC(=O)NC2=NCCS2)cc1`: 10.2%; for `O=C(COc1ccc(Cl)cc1)NCc1nnc(SCC(=O)c2ccccc2)o1`: 10.8%.

`CCOC(=O)C1(Cc2ccccc2)CCN(Cc2cccc3c2OCO3)CC1`: the “hERG current change (%, negative = inhibition) at 1uM” value was 1.36%. With `Cc1cc(OCC(=O)NC(C)C)ccc1Cl`, the “hERG current change (%, negative = inhibition) at 1uM” value stood at 10.7%. The same measure for `CCn1nc(C)c(CNC(=O)c2cc(COc3ccc(F)cc3Cl)on2)c1C`: -0.535%; for `COc1ccc(-c2csc(NC(=O)CCN3C(=O)C4CC=CCC4C3=O)n2)cc1OC` (stereo not shown): 1.89%. The figure for `CCN(Cc1ccccc1)C(=O)Cc1c[nH]c2ccccc12` is 11%; for `COC(=O)CSc1nnc(CNC(=O)c2ccccc2OC)n1C` it is 4%. The same measure for `Cc1ccccc1OCC(=O)Nc1c2c(nn1C(C)(C)C)CS(=O)(=O)C2`: 0.33%; for `Cc1ccc2c(cnn2C(=O)CCC(=O)NCc2cccc(Cl)c2)c1`: 14.3%.
